# The other results are listed elsewhere or left out. Further columns of the screen follow, without active or inactive calls.
# Experiments:
# Assay in all cases: Primary Screen for Target Class Profiling of Small Molecule Inhibitors of Methyltransferases
# [1] = target: Glycine N-methyltransferase (Homo sapiens) (UniProt Q14749); conditions: purified enzyme, MTase-Glo SAH luminescence; measured here: GNMT inhibition; at 40 µM; stronger effect = lower value
# Outline: (§1)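 Each enzyme was assayed with SAM and its substrate. SAH formation detected by MTase-Glo luminescence; single-point 40 uM screen[…].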
# [2] = target: Guanidinoacetate N-methyltransferase (Homo sapiens) (UniProt Q14353); conditions: purified enzyme, MTase-Glo SAH luminescence; measured here: GAMT inhibition; at 40 µM; stronger effect = lower value
# Outline: as §1
# [3] = target: Histamine N-methyltransferase (Homo sapiens) (UniProt P50135); conditions: purified enzyme, MTase-Glo SAH luminescence; measured here: HNMT inhibition; at 40 µM; stronger effect = lower value
# Outline: as §1
# [4] = target: Nicotinamide N-methyltransferase (Homo sapiens) (UniProt P40261); conditions: purified enzyme, MTase-Glo SAH luminescence; measured here: NNMT inhibition; at 40 µM; stronger effect = lower value
# Outline: as §1
# [5] = target: Phenylethanolamine N-methyltransferase (Homo sapiens) (UniProt P11086); conditions: purified enzyme, MTase-Glo SAH luminescence; measured here: PNMT inhibition; at 40 µM; stronger effect = lower value
# Outline: as §1
# % is set by controls: 0 for no effect and ±100 for the full control effect.
Compound,"activity change, negative = inhibition [1]","activity change, negative = inhibition [2]","activity change, negative = inhibition [3]","activity change, negative = inhibition [4]","activity change, negative = inhibition [5]"
O=C(Cn1nc2n(Cc3ccc(F)cc3)c(=O)c3ccccc3n2c1=O)Nc1cccc(Cl)c1,1.15%,0%,5.97%,-3.94%,-2.34%
O=C(NC1CCN(c2cc(-c3ccc(Cl)cc3)[nH]n2)C1)c1ccc(Br)o1 (stereo not given),-13.1%,-4.61%,-2.22%,-16.7%,-7.18%
CC(=O)N1CCN(c2nc3c(s2)CC(C(=O)Nc2cc(Cl)ccc2F)CC3)CC1 (stereo not given),-4.68%,-3%,-0.309%,-4.01%,-2.09%
O=C(O)CC1C(=O)NCCN1C1Cc2ccccc2C1 (stereo not given),-2.39%,1.82%,0.965%,-1.7%,-17.3%
Cc1nc(-c2cn3c(n2)-c2ccc(-c4cnn(C(C)(C)C(N)=O)c4)cc2OCC3)n(C(C)C)n1,-6.71%,-3.45%,4.04%,-18.1%,1.09%
Cc1nc(N)ncc1-c1nc(N2CCOCC2)c2sc(C(C)(C)O)cc2n1,-12.6%,-5.02%,-7.6%,-26%,-14.6%
COc1ccc(-c2nc3cnccn3c2NCCC(=O)N2CCCC(C)C2)cc1 (stereo not given),-13.8%,-12.5%,-17.2%,-25%,-10.8%
OC[C@@]1(O)CO[C@H](OC[C@H]2O[C@@H](OC(CCCCc3ccc(O)cc3)CCc3ccc(O)cc3)[C@H](O)[C@@H](O)[C@@H]2O)[C@@H]1O (stereo not given in full),1.41%,9.16%,10.4%,-2.46%,8.6%
CCc1ccc(S(=O)(=O)c2nnn3c2nc(N2CCN(C)CC2)c2cc(Cl)ccc23)cc1,-25.7%,0.051%,-5.07%,-8.86%,-6.28%
CCCN1C(=O)c2cc(C(=O)NCCCOC)nn2CC1(C)C(=O)NC1CCCC1 (stereo not given),4.82%,0%,4.25%,1.43%,3.08%
N#Cc1cc(-c2n[nH]c(-c3ccncc3)n2)ccn1,1.85%,6.37%,12.1%,-4.95%,8.48%
CCn1ccnc1CC1COc2ccccc2O1 (stereo not given),-3.87%,1.67%,-1.91%,-10.1%,-0.513%
CC1(C(=O)NC2CCCCCCC2)Cn2c(cc3occc32)C(=O)N1CCc1ccc(Cl)cc1 (stereo not given),-6.78%,1.37%,-0.637%,-5%,-2.77%
COc1ccccc1CNS(=O)(=O)c1cc2c(cc1Cl)n(C)c(=O)n2C,-1.48%,4.03%,-5.01%,-8.18%,-5.08%
CC(C)NC(=O)c1ccc2c(=O)n(Cc3ccccc3)c3nn(Cc4cccc(F)c4)c(=O)n3c2c1,9.39%,0.48%,7.43%,11.7%,9.4%
CCCN1C(=O)c2c(C(=O)NCc3ccc(CC)cc3)ncn2CC1(C)C(=O)NCc1ccc(C)cc1 (stereo not given),2.16%,0%,3.12%,-2.08%,8.05%
O=C(NCc1ccccc1Cl)c1ccc2c(=O)nc3c(-c4cccc(F)c4)n[nH]n3c2c1,-10%,3.87%,-1.2%,-14.1%,-4.49%
CC1(C(=O)NC2CCCC2)Cn2c(ccc2-c2ccco2)C(=O)N1CCCc1ccccc1 (stereo not given),-11.7%,1.99%,1.99%,-3.91%,-13.4%
CC(=O)N1CCN([C@H]2[C@@H]3OC[C@@H](O3)[C@@H](NCc3ccccc3O)[C@@H]2O)CC1,-2.8%,-7.24%,-0.968%,-5.03%,0.837%

Compound,"activity change, negative = inhibition [1]","activity change, negative = inhibition [2]","activity change, negative = inhibition [3]","activity change, negative = inhibition [4]","activity change, negative = inhibition [5]"
CCOC(=O)c1cc2n(n1)CC(C)(C(=O)NCc1ccc(C)cc1)N(c1cccc(Cl)c1C)C2=O (stereo not given),7.66%,0.639%,4.24%,2.69%,5.79%
CCCn1c(C)cnc1C1CCNC1 (stereo not given),-7.26%,-7.66%,-21.3%,-11.4%,-3.85%
CCOc1ccc(C2c3cccn3-c3sc4c(c3CN2C(=O)Nc2ccc(C)c(F)c2)CCCC4)cc1 (stereo not given),3.91%,3.46%,0.878%,-0.166%,5.72%
COc1ccc(CCN(CC2CCN(C)CC2)C(=O)C2CC23CCC3)cc1 (stereo not given),1.53%,2.92%,3.23%,-3.33%,16.6%
Cc1ccc(OCC(=O)c2ccc3c(c2)N(CCCC(=O)N2CCCC2)C(=O)CO3)cc1C,-3.48%,-0.182%,-3.58%,-2.83%,-1.22%
OC1(CN2CCC(COc3noc4cccc(O[C@@H]5CCOC5)c34)CC2)CCOCC1,-5.65%,-7.77%,-0.991%,-41.1%,-2.55%
CC1(C)C(=O)N2c3ccccc3C(O)(CC(C(=O)O)n3cnc4ccccc4c3=O)C2N1O (stereo not given),3.68%,1.11%,7.92%,-11.3%,-0.758%
O=C(NCCN1CCCCC1)[C@H]1C[C@@H](O)[C@H](O)[C@@H]2N=C(Nc3ccc4c(c3)OCO4)S[C@@H]21,1.21%,3.81%,-3.86%,-3.32%,16.5%
Cn1cc(-c2ccc3c(n2)CN(Cc2ccc(F)cc2)C(=O)CO3)cn1,-11.6%,-2.56%,-6.74%,-7.68%,-8.22%
Cc1ncnc(N2CCN(C(=O)C3CCN(C(=O)C4CC4)CC3)CC2)c1C,-0.624%,0.685%,2.29%,1.65%,1.57%
Cc1c(F)cc(C(=O)NC2CC2)cc1-c1ccc(C(=O)NCC(C)(C)C)cn1,5.72%,5.75%,7.39%,-12.4%,-3.34%
CC(C)Cn1c(=O)c2ccc(C(=O)NC(C)C)cc2n2c(=O)n(Cc3ccccc3F)nc12,6.19%,0%,-1.17%,0.357%,3.45%
CC1CC(C)CN(S(=O)(=O)c2ccc3c(c2)oc(=O)n3CC(=O)N2CCCC2)C1 (stereo not given),-4.47%,0%,-2.92%,-1.14%,-12%
O=C(c1ccccc1)N1CCCN(c2nc3ncccc3o2)CC1,-3.58%,-3.04%,-10.4%,-6.11%,-3.73%
O=C(CCc1nnc2n(Cc3ccc(F)cc3)c(=O)c3ccccc3n12)NCCCN1CCCC1=O,-5.83%,0%,3.9%,6.46%,0.319%
CCCNC(=O)N1CC(Oc2ccc(-c3nc(C)no3)cc2)C1,-6.66%,-10.2%,-6.22%,-14.7%,-12.3%
COC(=O)C1=COC(OC2OC(CO)C(O)C(O)C2O)C2C(COC(=O)/C=C/c3ccc(O)cc3)C(O)C(O)C12 (stereo not given),0%,1.81%,3.58%,-10.6%,4.83%
CCn1cc(C(=O)O)c(=O)c2cc3c(cc21)OCO3,-11%,-1.15%,-2.28%,-9.93%,-0.668%
O=C(CSc1nnc2n(Cc3ccccc3)c(=O)c3ccccc3n12)NC1CCCCC1,-4.15%,0%,2.71%,-16.6%,0.202%

# — PubChem BioAssay AID1745853 (National Center for Advancing Translational Sciences (NCATS), 2022)
